PubChem BioAssay AID488969 (Vanderbilt High Throughput Screening Facility, 2010)
The full ranking holds about 110,000 compounds; the median of “z-score” is about -0.1, and the highest 2% start at about 2. The list shows a part of the results.

What follows are compounds tested against Metabotropic glutamate receptor 8 (Rattus norvegicus) (UniProt P70579) (assay: mGluR8 Gi/Go-coupled signaling modulation – cell-based, rat, thallium flux, HTS, primary screen (AID 488969)). Conditions: HEK293 rat mGluR8, GIRK (G protein-gated inwardly rectifying potassium channel) thallium flux, FluoZin2; at 10 µM; stronger effect = higher value; submaximal glutamate (EC20) added with thallium.
Chain of UniProt P70579 (P70579 whole entry, looked up): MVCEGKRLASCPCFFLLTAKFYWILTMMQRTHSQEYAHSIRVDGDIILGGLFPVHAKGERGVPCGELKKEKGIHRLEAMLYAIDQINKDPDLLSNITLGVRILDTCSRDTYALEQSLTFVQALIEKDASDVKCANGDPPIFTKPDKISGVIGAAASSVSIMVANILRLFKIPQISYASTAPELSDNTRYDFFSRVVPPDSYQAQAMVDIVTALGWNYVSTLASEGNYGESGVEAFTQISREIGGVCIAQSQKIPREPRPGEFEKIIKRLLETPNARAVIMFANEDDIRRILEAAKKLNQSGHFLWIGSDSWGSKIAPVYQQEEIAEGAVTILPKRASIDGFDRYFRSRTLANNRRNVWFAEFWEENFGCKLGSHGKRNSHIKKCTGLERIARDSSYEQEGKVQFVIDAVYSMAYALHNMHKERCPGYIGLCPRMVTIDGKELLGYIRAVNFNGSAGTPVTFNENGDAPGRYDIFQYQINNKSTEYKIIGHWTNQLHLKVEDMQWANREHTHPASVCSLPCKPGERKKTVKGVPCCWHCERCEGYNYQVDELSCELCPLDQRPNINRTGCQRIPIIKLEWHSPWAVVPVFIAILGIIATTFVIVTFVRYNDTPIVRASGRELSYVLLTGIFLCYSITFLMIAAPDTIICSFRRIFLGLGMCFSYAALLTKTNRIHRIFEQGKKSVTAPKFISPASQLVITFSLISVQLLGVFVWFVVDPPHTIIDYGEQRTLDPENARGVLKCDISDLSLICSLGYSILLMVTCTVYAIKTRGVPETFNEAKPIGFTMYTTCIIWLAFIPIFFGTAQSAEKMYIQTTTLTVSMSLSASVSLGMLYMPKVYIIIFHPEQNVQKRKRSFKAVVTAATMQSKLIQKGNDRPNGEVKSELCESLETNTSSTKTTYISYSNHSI

Compound	z-score
COC(=O)c1ccccc1NC(=O)C1CC(c2ccccc2O)=NO1 (stereo not given)	2.57
O=C(/C=C/c1ccccc1)n1cnnc1SC/C=C/c1ccccc1	-0.103
COC(CNC(=O)c1cc(Sc2nnc(C)s2)nc2ccccc12)OC	0.115
Cc1ccc2c(c1)CCCN2C(=O)c1ccc2c(c1)OCO2	-0.679
COc1cc(CNCCc2ccc(S(N)(=O)=O)cc2)ccc1OCc1ccc(Cl)cc1	0.852
O=C(CSc1nnc(-c2ccncc2)n1Cc1ccccc1)NCCc1ccccc1	-0.454
CC12CCC(C/C1=N\N=C1\NC(=O)/C(=C\c3ccc(Cl)cc3)S1)C2(C)C (stereo not given)	0.00679
CC(=O)c1cc2c(cc1NC(=O)CN1CCCCC1C)OCO2 (stereo not given)	-0.0192
Cc1ccc(S(=O)(=O)N/N=C\c2ccccc2OCc2ccccc2)cc1	-0.0338
OCCN(Cc1ccccc1)Cc1ccc(Cl)cc1Cl	0.0495
N#CCSc1ncccc1-c1nc2ccccc2[nH]1	-0.0878
Cc1csc(SCC(=O)NC23CC4CC(CC(C4)C2)C3)n1	-0.149
Cc1cccc(C)c1NC(=O)CN(C)C(=O)/C=C/c1cccs1	-0.227
COc1cc(CC(=O)Nc2ccc(S(=O)(=O)Nc3ncccn3)cc2)cc(OC)c1OC	1.19
Cc1cc(C)cc(NC(=O)NC2CCN(CC(=O)Nc3c(C)cc(C)cc3C)CC2)c1	0.931
COc1ccc(NC(=O)N(Cc2ccc(C)cc2)Cc2ccccn2)c(OC)c1	-0.566
Cc1cc(NC(=O)COC(=O)[C@H](Cc2c[nH]c3ccccc23)NC(=O)c2ccc(F)cc2)no1	-2.29
O=C(NC(=S)Nc1ccc(Oc2ccccc2)cc1)c1ccc(Cl)cc1	1.23
CCn1nnc(-c2ccccc2NS(=O)(=O)c2ccc(S(=O)(=O)N3CCCCCC3)cc2)n1	-0.187
O=C(NCc1ccc(C(F)(F)F)cc1)C1CC(c2c(Cl)cccc2Cl)=NO1 (stereo not given)	-0.237
COc1ccc(COC(=O)c2nc3nc(C)cc(C)n3n2)cc1F	-0.584
CCOCc1nnc(NC(=O)c2ccc(OC)cc2)s1	0.472
O=C(COc1cc(O)c2c(=O)cc(-c3ccccc3)oc2c1)c1ccccc1	0.0143
CC1=C(C)CC(C(=O)Nc2cccc(Cl)c2)C(C(=O)O)C1 (stereo not given)	-0.289
Cc1ccccc1C(=O)N1CCC(C(=O)O)CC1	0.775
Cc1cccc(/C(N)=N/OC(=O)c2ccc(Cl)cc2Cl)c1	-0.137
Nc1c(Sc2ccccc2)c(=O)[nH]c(=O)n1Cc1ccccc1	-1.01
O=c1c2ccccc2nc2c3ccccc3ncn12	-0.105

Compound	z-score
COc1cc2[nH]c3c(N4CCN(c5ccc(Cl)cc5)CC4)ncnc3c2cc1OC	-0.117
CS(=O)(=O)Nc1ccccc1C(=O)Nc1ccccc1Cl	-0.0832
CCN(CC)CCCNC(=O)c1cn(CCOC)c(=O)c2c1c1ccccc1n2C	-0.357
O=S(=O)(Cc1ccccc1)NCc1ccccn1	0.0602
CCc1ccccc1NC(=O)NC1CCCCC1	-0.1
CCN(CC)S(=O)(=O)c1ccc(N/N=C(\C)c2ccc3c(c2)OCO3)c([N+](=O)[O-])c1	-1.24
COc1ccc(N2CCN(C(=O)CSc3nnc4c5cc(C)ccc5n(C)c4n3)CC2)cc1	-0.181
Cc1cccc(NC(=O)CN2C(=O)N/C(=C\c3ccc(N4CCOCC4)cc3)C2=O)c1	0.186
COc1ccc(C(=O)NCC(=O)OCC(=O)c2ccc3c(c2)OCCO3)cc1	-0.196
CC(=C/c1ccc(C(C)C)cc1)/C=N/NC(=O)c1ccncc1	2.21
Cc1nc(CSc2ccc(Cl)cc2)cc(NCc2ccccc2)n1	1.02
O=C(CCNS(=O)(=O)c1ccc2c(c1)CCC(=O)N2)NCc1cccnc1	-0.489
Cc1cc(Cl)ccc1OCC(=O)N1CCCCC1	0.592
Cc1ccc(C(=O)N/C(=C/c2ccco2)C(=O)NCC2CCCO2)cc1 (stereo not given)	-0.297
COc1ccc(-c2noc(CSc3nc4sc(C)c(C)c4c(=O)n3-c3ccccc3)n2)cc1OC	-1.48
COc1ccc(OC)c(-c2cc(C(=O)Nc3c(C)nn(Cc4ccccc4)c3C)no2)c1	-0.945
CC1CC(C)CN(S(=O)(=O)c2ccc(C(=O)Nc3sccc3C(N)=O)cc2)C1 (stereo not given)	-0.179
CCOC(=O)C1=C(C)C(c2ccc(OC)cc2)NC(=S)N1 (stereo not given)	0.0191
CCOC(=O)N1CCC(NC(=O)c2ccc3c(c2)N(Cc2ccc(C)cc2)CCS3)CC1	1.04
COCCNC(=O)c1onc(CSc2ccc(C)c(C)c2)c1C(=O)O	-0.0285
CCOc1ccc2c(c1)C(c1ccc(C)cc1)=NNC(c1ccc(C)cc1)=N2	-0.774
COc1ccc(-c2cc(-c3ccc(C)cc3)nc(SCc3nnc(-c4ccccc4)o3)c2C#N)cc1OC	-0.105
CC(=O)N1N=C(c2ccc(Br)cc2)CC1c1cn(C)c2ccccc12 (stereo not given)	-0.26
CC(C)Cc1nnc(NC(=O)c2cc(-c3ccccc3)nc3ccccc23)s1	-0.456
CCCn1c(=N)c(C(=O)NC2CCCC2)cc2c(=O)n3cccc(C)c3nc21	0.787
CC12CCC(C(=O)N3CCN(c4ncccn4)CC3)(c3nc4ccccc4nc31)C2(C)C (stereo not given)	-0.165
CCCCC(=O)Nc1nc(C)c(C(C)=O)s1	0.65
